Laboratory results: publication PMC4336329 (PLoS ONE, 2015)
About 14,000 (4.5%) of roughly 310,000 compounds showed an effect of 50% or more. The effect is printed as a negative number. This is one part of the list.

Target: human ether-à-go-go-related gene (hERG) potassium channel (human, UniProt Q12809)
Assay: primary screen, population patch clamp on CHO cells stably expressing hERG
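Further: peak tail current of the secondary pulse compared with the same well before compound.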

human ether-à-go-go-related gene (hERG) potassium channel, sequence (Q12809 whole entry, looked up): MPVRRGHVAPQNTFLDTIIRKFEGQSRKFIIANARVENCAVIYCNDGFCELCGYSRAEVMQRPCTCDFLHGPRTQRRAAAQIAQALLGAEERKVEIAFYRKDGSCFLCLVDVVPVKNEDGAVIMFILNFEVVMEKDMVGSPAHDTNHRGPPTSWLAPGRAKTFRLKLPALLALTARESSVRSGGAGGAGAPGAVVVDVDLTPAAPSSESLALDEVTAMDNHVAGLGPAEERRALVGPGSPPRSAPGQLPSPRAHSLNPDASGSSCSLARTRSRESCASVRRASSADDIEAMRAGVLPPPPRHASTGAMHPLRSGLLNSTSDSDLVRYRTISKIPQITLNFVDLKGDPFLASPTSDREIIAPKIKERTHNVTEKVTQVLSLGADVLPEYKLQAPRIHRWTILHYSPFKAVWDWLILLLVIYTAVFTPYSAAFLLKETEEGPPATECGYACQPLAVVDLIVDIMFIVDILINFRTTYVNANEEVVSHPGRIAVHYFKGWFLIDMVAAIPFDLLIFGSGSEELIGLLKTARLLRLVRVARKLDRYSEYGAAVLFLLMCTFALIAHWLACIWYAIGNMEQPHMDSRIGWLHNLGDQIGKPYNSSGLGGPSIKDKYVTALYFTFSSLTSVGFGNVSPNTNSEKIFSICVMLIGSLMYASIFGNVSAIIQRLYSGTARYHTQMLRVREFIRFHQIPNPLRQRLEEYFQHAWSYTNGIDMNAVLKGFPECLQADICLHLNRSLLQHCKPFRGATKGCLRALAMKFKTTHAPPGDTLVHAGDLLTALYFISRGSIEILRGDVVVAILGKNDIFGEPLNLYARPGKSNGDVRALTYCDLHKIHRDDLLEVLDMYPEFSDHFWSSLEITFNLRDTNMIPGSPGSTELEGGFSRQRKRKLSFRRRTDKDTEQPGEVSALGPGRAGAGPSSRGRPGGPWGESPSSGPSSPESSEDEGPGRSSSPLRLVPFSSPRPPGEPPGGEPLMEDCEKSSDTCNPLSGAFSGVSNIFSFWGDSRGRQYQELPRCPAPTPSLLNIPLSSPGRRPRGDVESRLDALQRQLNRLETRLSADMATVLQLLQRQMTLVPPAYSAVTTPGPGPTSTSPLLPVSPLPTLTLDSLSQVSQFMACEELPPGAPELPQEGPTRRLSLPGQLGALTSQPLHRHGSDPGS

Structure (SMILES) | hERG current change (%, negative = inhibition) at 10uM [%]
C/C=C/C(=O)Nc1nnc(C2CCCCC2)s1 | 3.93
Cc1ccc(NC(=O)CN(C)CC(=O)Nc2ccc(N3CCOCC3)cc2)c([N+](=O)[O-])c1 | -0.559
CCOC(=O)C1=C(C)N=c2s/c(=C/c3ccco3)c(=O)n2C1c1cccc(OC)c1 (stereo not shown) | 6.27
CCN1CCN(C(CNS(=O)(=O)c2ccccc2)c2ccccc2)CC1 (stereo not shown) | -34.8
CCCCSc1nc(O)cc(=O)n1CC | 1.65
O=C(Nc1c(F)cccc1F)c1cnc(N2CCN(c3ccccn3)CC2)c2ccccc12 | -4.56
CN(C)CCOC(=O)COc1ccc(Cl)cc1.Cl | -3.97
C/C(=N\NC(=O)c1nnn(-c2nonc2N)c1C)c1ccc(OCc2ccccc2)cc1 | 15.2
CC(=O)Nc1nc(-c2ccc3c(c2)OCO3)cs1 | 3.99
O=C(Cn1cnc2c(nnn2Cc2ccc(Cl)cc2)c1=O)OCc1ccccc1 | 2.23
COc1cccc(CNC(=O)c2cnc(-c3ccccn3)nc2C(F)(F)F)c1 | -0.948
O=C(Nc1ccc(N2CCN(C(=O)c3cccs3)CC2)cc1)c1ccco1 | 17.7
O=C(N/N=C/c1cccnc1)C1CCCCC1 | 30.3
Cc1ccc(NC(=O)C2(N3CCC3=O)CCCCC2)cc1 | 6.92
O=C(CSc1ccccc1)N1CCN(C(=O)c2ccco2)CC1 | -10.1
CCOC(=O)N1CCC(NC(=O)CC2C(=O)NCCN2Cc2cccc(F)c2F)CC1 (stereo not shown) | -19.3
O=S(=O)(NCc1ccccc1)c1cccc2cccnc12 | -8.15
Cc1cccc(C)c1NC(=O)C(C)N1CCCCC1 (stereo not shown) | 9.05
COc1ccc(NC(=O)c2cc([N+](=O)[O-])ccc2N2CCNCC2)cc1 | -44.5
CC1(C)NC(C)(C)/C(=C\c2cccs2)C(=O)C1=O | 26.6

Structure (SMILES) | hERG current change (%, negative = inhibition) at 10uM [%]
CCN(CC)S(=O)(=O)c1ccc(N2CCOCC2)c(NC(=O)Cc2ccccc2F)c1 | -27.1
CC(=O)C1=C(O)C(=O)N(C)C1c1ccccc1[N+](=O)[O-] (stereo not shown) | 14.1
C=C1C(=O)O[C@@H]2[C@H]3O[C@]3(C)CC/C=C(\C)CC[C@@H]12 | 15.8
Cc1occc1C(=O)Nc1nnc(C(F)(F)F)s1 | 8.77
C/C(CC(=O)Nc1cc(Cl)ccc1Cl)=N\NC(N)=S | -6.37
COc1ccc(C)cc1-n1c(SCC(=O)NC2CC2)nc2ccccc2c1=O | -17.4
O=P(CCCO)(Cc1ccccc1)Cc1ccccc1 | 16.7
COc1ccc(OC)c(Nc2nc(-c3sc(NC(=O)C(C)(C)C)nc3C)cs2)c1 | 12.5
CC(=O)N1[C@@H]2CC3C4CC=C5C[C@@H](O)CC[C@]5(C)C4CC[C@]3(C)[C@@]21C(C)=O (stereo partly shown) | 9.98
CSc1cc(-c2ccc(Cl)cc2)c(C(=O)NN)s1 | -9.98
CCCn1nnnc1SCC(=O)N1CCCc2ccccc21 | 9.32
NS(=O)(=O)c1ccc(NC(=O)Nc2ccc3c(c2)OCO3)cc1 | -1.4
COc1cc(CN2CCC(CCC(=O)NC3CC3)CC2)cc(Cl)c1OC | -55.4
CC(C)n1c(=O)c(C=Nc2cccc([N+](=O)[O-])c2)c(O)n(CCc2ccccc2)c1=O | -0.91
CN(Cc1nc2ccccc2c(=O)[nH]1)C(=O)c1cc(C2CC2)nn1-c1ccccc1 | -34.1
CCOc1ccccc1CNC(=O)CCCn1ncn2c(cc3occc32)c1=O | -11.2
Cc1csc(NC(=O)C(C)N2C(=O)c3ccccc3S2(=O)=O)n1 (stereo not shown) | -8.08
CN(C)/C=C(/C(=O)c1ccc(Cl)c(Cl)c1)S(C)(=O)=O | 13.4
Cc1cc(C)c(C)c(S(=O)(=O)NCc2cccnc2)c1C | -7.93
Cc1ccccc1C(=O)NC(CC(C)C)C(=O)N1CCN(c2ccccc2)CC1 (stereo not shown) | -11.1

Structure (SMILES) | hERG current change (%, negative = inhibition) at 10uM [%]
O=C(NNC(=S)NC1CCCCC1)c1ccc2c(c1)OCO2 | 13.3
CC/S(C)=N/S(=O)(=O)c1ccc(C)cc1 (stereo not shown) | 7.95
Cc1nnc(SCc2nnc(-c3cccs3)o2)n1Cc1ccccc1 | 4.17
COCNc1nc(OCC#N)nc(N(C)C)n1 | -13.4
COc1cc(S(=O)(=O)Nc2cccc3cn[nH]c23)c(OC)cc1Cl | 4.63
Cc1ccc(NC(=O)Nc2ccc(Cl)c(Cl)c2)nc1 | 21.9
COC(=O)CNC(c1ccccc1)c1cc(Br)ccc1NC(=O)OCc1ccccc1 (stereo not shown) | 12.9
C/C(=N\O)C(=O)C(CN1CCCCC1)CN1CCCCC1 | 9.94
Cc1cc(C(=O)CSc2nnc(-c3cccnc3)n2-c2ccccc2)c(C)n1CC1CCCO1 (stereo not shown) | 0.17
O=C(OCc1c(Cl)cccc1Cl)c1ccccn1 | 4.9
CCC(C)(C)NC(=O)C(c1cccn1C)N(Cc1ccc(C)cc1)C(=O)Cn1nnc2ccccc21 (stereo not shown) | 18.6
Cc1nc(SCC(=O)Nc2cccnc2Cl)nc(C)c1C | 10.2
CCn1c(-c2ccoc2C)n[nH]c1=S | 16.1
COc1ccc(-c2noc(CCC(=O)O)n2)cc1 | 6.57
COc1ccc(C(=O)CC2OC(=O)c3ccccc32)cc1OC (stereo not shown) | -17
CCN(C(=O)COC(=O)Cc1c[nH]c2ccccc12)C1CCS(=O)(=O)C1 (stereo not shown) | 2.84
CCN(CC)S(=O)(=O)c1ccc2oc(SCC3CN=C(c4ccc(OC)cc4)S3)nc2c1 (stereo not shown) | 23
CC(C)=CC1C(C(=O)Nc2ccc(Br)cn2)C1(C)C (stereo not shown) | -8.01
